The results in this text go back to ChEMBL document CHEMBL4888484, “Replenishing the malaria drug discovery pipeline: Screening and hit evaluation of the MMV Hit Generation Library 1 (HGL1) against asexual blood stage Plasmodium falciparum ,using a nano luciferase reporter read-out” (2022).

Screen size: about 150,000 compounds; about 540 (0.36%) showed an effect of 50% or more. The list shows a part of the results.

In the test the test system is Plasmodium falciparum. As to the kind of experiment: Primary screen in NF54 nanoGlo assay, in single point, at 2uM, 72h; a lower Z score goes with more inhibition. To be noted: timepoint 72 hour. It is filed as functional, Erythrocyte.
Consider `O=C(c1ccc(F)cc1Br)N(Cc1ncc[nH]1)c1cccc(F)c1`, for which the “% Inhibition” value is reported as -3% and the Z score was 0.36.

As for `Nc1ccc(Br)cc1C(=O)N[C@H]1CC[C@H](O)CC1`, the “% Inhibition” value was -9% and the Z score worked out at 1.19.

As for `O=C(c1cccs1)N1CCC(c2nnc(C3CC3)o2)CC1`, the “% Inhibition” value was 20% and the Z score is recorded as -2.66.

As for `CCCCCC(=O)Nc1ccccc1Cl`, the “% Inhibition” value worked out at 36% and the Z score is reported as -0.95.

For the compound `FC(F)(F)c1ccc(-c2noc([C@@H]3Cc4[nH]cnc4CN3Cc3cc4ccccc4o3)n2)cc1`, the “% Inhibition” value worked out at 0% and the Z score is on record as -0.05.

In the case of `Cc1nn(C)c(C)c1S(=O)(=O)Nc1ncc(C(C)C)s1`, the “% Inhibition” value is listed as 32% and the Z score was -0.94.

For the compound `NC(=O)Cn1ccnc1C1CCN(c2ncnc3ccsc23)CC1`, the “% Inhibition” value is reported as -7% and the Z score is 0.86.

`O=C([C@@H]1CCCO1)N1CCN(c2nc(-c3cccnc3)nc3c2CNC3)CC1`: the “% Inhibition” value is given as -8% and the Z score amounted to 1.32.

As for `CCCn1cc(C(=O)NC[C@]2(O)CCCC2(C)C)cn1`, the “% Inhibition” value came out at 24% and the Z score is -2.71.

With `O=C(c1c(F)cc(F)cc1F)C1CCN(Cc2csnn2)CC1`, the “% Inhibition” value is on record as -12% and the Z score worked out at 1.6.

For the compound `COc1ccccc1CC(=O)NCc1ccc(-c2ccco2)nc1`, the “% Inhibition” value is -9% and the Z score amounted to 0.98.

In the case of `C[C@@H](c1ccon1)N(C)C(=O)c1coc(COc2ccc(F)cc2)n1`, the “% Inhibition” value was -6% and the Z score is given as 0.85.

In the case of `Nc1nc(CCNC(=O)c2ccc([C@@H]3CCCN3)s2)cs1`, the “% Inhibition” value is given as -3% and the Z score amounted to 0.44.

For `Cc1ccc(CCN2C(=O)CC[C@@]2(C)C(=O)NC2CCCCCC2)cc1`, the “% Inhibition” value is recorded as -31% and the Z score is on record as 2.72.

For `CCOc1ccccc1-c1nccn1CCNC(=O)c1cccnc1`, the “% Inhibition” value was 10% and the Z score was -1.32.

For `CCC(C)C(NC(=O)c1ccc(Cl)cc1)C(=O)OCc1cn2ccccc2c1C#N` (stereo not given), the “% Inhibition” value is on record as -6% and the Z score was found to be 1.06.

With `Cc1cc(C)c2nc(NC[C@H]3CCCO3)sc2c1`, the “% Inhibition” value is given as 19% and the Z score is -2.39.

For the compound `O=C(C1CCCC(C(=O)N2CCCCCO2)C1)N1CCCCCO1` (stereo not given), the “% Inhibition” value was 23% and the Z score was -2.92.

`Cc1cccc(NC(=O)Cn2cccc(S(=O)(=O)N3CCC(C)CC3)c2=O)c1`: the “% Inhibition” value was -8% and the Z score is on record as 1.1.

With `COc1cccc(S(=O)(=O)N2CCn3nnc(CCC(=O)N4CCOCC4)c3C2)c1`, the “% Inhibition” value was -5% and the Z score was 0.99.

As to `CCn1cc(NC(=O)c2cc(Br)cnc2N(C)C)cn1`, the “% Inhibition” value is reported as -16% and the Z score is recorded as 1.66.

As to `CO[C@@H](C)c1nc(CCc2ccccc2)nn1CC(F)(F)F`, the “% Inhibition” value was -3% and the Z score came out at 0.48.

`CCc1nc(CNC(=O)[C@@H]2NCCc3[nH]cnc32)cs1`: the “% Inhibition” value is -6% and the Z score stood at 0.63.

With `CCN(Cc1nc2c(s1)C[C@@H](C)CC2)C(=O)c1cnc(OC)nc1`, the “% Inhibition” value is 0% and the Z score stood at 0.01.

Turning to `CC(C)Oc1ccc(-c2ccnc3c2ccn3C)nn1`, the “% Inhibition” value is 0% and the Z score is -0.03.

Regarding `CCn1nc(C)c(CN2CCC(n3nccc3NC(=O)c3cccnc3)CC2)c1C`, the “% Inhibition” value is listed as -5% and the Z score came to 0.92.

For `Nc1c(NC(=O)Nc2ccccc2)c(-c2ccccc2)nn1-c1ccccc1Cl`, the “% Inhibition” value came to 2% and the Z score is given as -0.35.

Regarding `O=C(CCC(F)(F)F)N[C@H]1CC[C@@H]2CCC[C@@H]21`, the “% Inhibition” value is given as -15% and the Z score is 1.4.

Consider `CCCCN1CCN([C@H]2CCOC2)CC1=O`, for which the “% Inhibition” value is recorded as -9% and the Z score turned out to be 1.55.

Turning to `CCCc1nnc(N(C)C[C@H]2CCOC2)s1`, the “% Inhibition” value was -6% and the Z score is on record as 1.19.

Regarding `O=C(N[C@H]1C[C@H]2C(=O)Nc3cc(Cl)ccc3C(=O)N2C1)c1ccccc1`, the “% Inhibition” value came to 25% and the Z score is on record as -2.88.

In the case of `Cc1csc(C(C)(C)NC(=O)CCn2nc3ccccn3c2=O)n1`, the “% Inhibition” value is -2% and the Z score stood at 0.26.

`Cc1n[nH]c2c1CN(C(=O)N[C@@H](C)c1ccc(F)cc1)CC2`: the “% Inhibition” value worked out at 4% and the Z score is on record as -0.58.

As for `COCCN1CCN(c2nc(-c3ccc(F)cc3)c3c(N)n(-c4ccc(Cl)cc4)nc3n2)CC1`, the “% Inhibition” value is -3% and the Z score amounted to 0.28.

`COc1ncccc1C(=O)N1CCc2sccc2C1`: the “% Inhibition” value is on record as -13% and the Z score is 2.49.

On to `C[C@H]1CNc2nc(N)[nH]c(=O)c2N1C(=O)c1cccnc1`, for which the “% Inhibition” value was found to be 1% and the Z score is -0.14.

As to `O=C(Nc1cccc(-c2noc(C3CC3)n2)c1)c1cccnc1C1CC1`, the “% Inhibition” value is reported as -11% and the Z score is given as 1.47.

On to `C[C@@H](CCc1cccn1C)Nc1nccnc1C#N`, for which the “% Inhibition” value was found to be 0% and the Z score is reported as 0.01.

`O=c1nc([C@@H]2CCCO2)[nH]c2c(Cl)cccc12`: the “% Inhibition” value is listed as 0% and the Z score is on record as -0.06.

In the case of `CCCc1nnc(NCc2cnn(CC)c2)s1`, the “% Inhibition” value was -16% and the Z score is given as 3.02.

`NS(=O)(=O)c1ccc(NC(=O)C23CCC(CC2)C3)cc1`: the “% Inhibition” value is listed as -7% and the Z score is listed as 0.94.

For the compound `CN(C)c1ccc(CNC(=O)C2CCN(c3cnc(N4CCCC4)nc3)CC2)cc1`, the “% Inhibition” value was -18% and the Z score was 2.04.

As to `O=C(C1COCCO1)N1CCCC(O)C1CCc1ccccc1` (stereo not given), the “% Inhibition” value is on record as -9% and the Z score turned out to be 1.3.

Consider `CN1N=C(C(=O)Nc2ccc(N(C)C)nc2)CCC1=O`, for which the “% Inhibition” value was -5% and the Z score stood at 0.44.

As to `CCc1n[nH]c(C(=O)NC[C@@H]2COc3ccccc3C2)c1C`, the “% Inhibition” value is on record as -7% and the Z score was 1.12.

On to `O=C(NC1CCCC1)N1CCN(c2cccnc2)C(=O)C1`, for which the “% Inhibition” value amounted to 16% and the Z score is -1.98.

On to `CC1(C)OCCC1NC(=O)[C@H]1CC1(C)C` (stereo not given in full), for which the “% Inhibition” value was -9% and the Z score worked out at 1.26.

In the case of `O=C1CN(Cc2csc([C@@H]3CCCO3)n2)Cc2ccccc2N1`, the “% Inhibition” value is on record as 0% and the Z score is -0.04.

Turning to `Cc1c(NC(=O)Cn2cnnn2)cccc1OC1CCCC1`, the “% Inhibition” value was 2% and the Z score is listed as -0.32.

With `Cc1ccc(C)c(S(=O)(=O)N2CCCN(Cc3cn4cc(Cl)ccc4n3)CC2)c1`, the “% Inhibition” value is -9% and the Z score was 1.38.

Turning to `CN(CCN(C)C1CC1)C(=O)c1ccc(C(F)(F)F)[nH]1`, the “% Inhibition” value was 0% and the Z score was determined as 0.04.

In the case of `CCc1ncnc(O[C@H]2CCN(C(=O)c3c[nH]c(=O)[nH]3)C2)c1F`, the “% Inhibition” value is recorded as -5% and the Z score is listed as 0.84.

Take `CCN1CCN(C(=O)Cn2c(C)ccc(NC(=O)Nc3ccc(C)cc3)c2=O)CC1`: the “% Inhibition” value is reported as -7% and the Z score came out at 1.19.

Turning to `Cc1ccc(Cn2cc(-c3noc(C(=O)Nc4ccc(F)c(F)c4)n3)nn2)cc1`, the “% Inhibition” value was -11% and the Z score is given as 2.14.

As for `CC(C)(C)c1cc(CN2CC(=O)NC[C@H]2c2ccccc2)no1`, the “% Inhibition” value is listed as -10% and the Z score stood at 1.76.
